Test results as given in the supplement of paper PMC3334620.
The full ranking holds about 33,000 sequences; the median of “E-score (-0.5 to 0.5)” is about -0.021, and the highest 2% start at about 0.32. The list shows a part of the results.

What follows are sequences tested against T1, Zap1 (UniProt P47043) (assay: PBM E-score (8-mer binding enrichment) (E-score (-0.5 to 0.5)); higher = stronger / more preferred TF binding; most listed sequences are background and not binding sites). Settings: protein concentration: 200 nM; construct: GST-full length.
T1 sequence: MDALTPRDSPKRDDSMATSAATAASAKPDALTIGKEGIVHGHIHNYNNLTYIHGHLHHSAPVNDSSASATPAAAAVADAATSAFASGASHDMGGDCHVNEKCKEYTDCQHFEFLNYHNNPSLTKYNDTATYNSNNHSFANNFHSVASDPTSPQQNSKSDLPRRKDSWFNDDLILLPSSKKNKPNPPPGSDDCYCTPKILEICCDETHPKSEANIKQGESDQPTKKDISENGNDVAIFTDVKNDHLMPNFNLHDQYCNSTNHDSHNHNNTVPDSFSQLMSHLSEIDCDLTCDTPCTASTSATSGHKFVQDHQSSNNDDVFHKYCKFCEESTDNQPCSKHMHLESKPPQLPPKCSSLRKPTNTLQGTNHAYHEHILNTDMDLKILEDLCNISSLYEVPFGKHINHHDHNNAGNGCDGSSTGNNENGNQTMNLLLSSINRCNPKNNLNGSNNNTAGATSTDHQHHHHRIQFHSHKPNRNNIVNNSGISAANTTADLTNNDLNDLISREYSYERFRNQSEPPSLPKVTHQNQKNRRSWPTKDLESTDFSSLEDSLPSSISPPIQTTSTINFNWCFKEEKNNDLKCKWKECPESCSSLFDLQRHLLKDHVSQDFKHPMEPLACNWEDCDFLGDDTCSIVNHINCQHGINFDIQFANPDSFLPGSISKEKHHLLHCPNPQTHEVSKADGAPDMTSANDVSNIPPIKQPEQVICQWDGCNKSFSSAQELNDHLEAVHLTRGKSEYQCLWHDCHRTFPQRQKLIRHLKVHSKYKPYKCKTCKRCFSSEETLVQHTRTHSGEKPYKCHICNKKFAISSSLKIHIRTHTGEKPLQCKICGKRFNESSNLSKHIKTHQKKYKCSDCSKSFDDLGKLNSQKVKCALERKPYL
Outline: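 Detection of bound protein used fluorescent anti-GST, with scans normalised by masliner. The proteins were GST-tagged yeast transcription factors applied at about 100-200 nM to universal all-10-mer Agilent arrays made double-stranded by primer extension. Each ungapped eight-base word, pooled with its reverse complement, was scored with an E-score from the Universal PBM Analysis Suite.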

Sequence	PBM E-score
CCGGTTAG	0.159
ACCCTCAT	0.267
AGTACCAC	0.208
CGGCGCAG	-0.253
TAACAGGA	0.0198
AACGAGTG	-0.116
ATACTCCG	0.13
CACGCATC	-0.0974
GCCGATAC	-0.262
CGAAATGC	0.039
ACCCCCCT	-0.283
CAACAATA	0.159
AGGATTCA	-0.164
TACTGTCA	0.0135
CTCCAAGA	-0.135
CTGGAGTC	-0.293
CTACCGAA	-0.0174
CGCCTAAC	0.0159
GGCTAGTA	-0.138
AGTTAGGA	0.0469
ACTTCCCG	-0.209
ACCCTCGT	0.358
CATGGTAA	0.176
AATTGCGC	0.0813
ACGTATAC	0.00898

Sequence	PBM E-score
CTTTCCAC	-0.158
AGGAATGA	-0.0672
GTGCGACA	-0.0731
AGTTAGTC	-0.0109
ACGCAAGT	-0.0294
CGTGAGAA	0.103
CCACTCGA	0.0711
AACATTGA	-0.0517
CGTATCGA	-0.133
CGTGGGCA	-0.398
CATGGCAC	-0.0804
CGCGGGAC	-0.109
CACTTCCG	-0.0229
CCGGTGAC	0.177
ACTAGCAC	-0.0163
AGTTGTAA	0.0607
ATTTTATA	0.218
CTCCGATA	-0.14
GCTTCTAC	-0.154
AGCAATGG	-0.133
AGGACAGA	-0.116
GACCAGTC	-0.118
ATGGTGAG	-0.0848
CTTGAATA	0.0966
CCTCCCAA	-0.053

Sequence	PBM E-score
GAACTAGA	-0.059
ACGCTGCT	-0.138
CAAATTGC	-0.0528
GGAGGAGA	-0.31
CGTCTCTA	-0.19
GCAAATAA	0.121
ATATGCTA	-0.0941
CTGGCGAC	-0.15
AACCGTCA	0.183
AACCTTCG	0.305
GTACTCAC	0.23
TTGTCAAA	0.147
TAGGTAGA	0.117
AAGTAAAG	-0.218
ATTCCCAG	-0.0801
CCTTCAAA	0.215
CAGGCTGC	-0.2
GTATTAAA	0.115
CCTAACAA	0.221
CATCGCTC	-0.173
TACTTTGA	0.121
TAACGGTA	0.257
GGGTCCGA	0.0103
CCAGGAGA	-0.0614
CATGGAGA	-0.0466

Sequence	PBM E-score
GGATCGCA	-0.0873
CCCCTAAA	0.0485
CCTGATAA	0.0464
ACAGTGAT	-0.0505
CCGATAAC	0.229
ATTAGGAG	-0.04
CAGACATC	-0.0635
ATGGAAGC	-0.263
AATGCGGG	0.172
GGCGGTAA	0.125
GTTTTGAA	0.152
CCAAGTGA	0.124
ATCGCACC	-0.0201
AAGGTTCC	0.317
GGCGTACC	0.0458
TTCGCGAA	0.121
CATAGATA	-0.195
CGGAAAGC	-0.117
AAACTTAG	0.0118
ATCTGCCC	-0.337
TCGATACA	0.166
ATATCAAG	0.228
ATAAAGCA	-0.0384
CATACAGG	0.0416
CCCCTGAG	-0.0275

Sequence	PBM E-score
AGATGTAA	-0.0125
CTATCATC	0.00267
ACTGAGGG	-0.0161
CGGTCCAA	-0.0431
ATAGGAAG	-0.133
ATGCCAGG	-0.0827
AGGAACTA	-0.0309
CGTGATCA	0.0536
AATCGTTA	-0.106
ATATGCCC	-0.187
TCCACGGA	0.0527
GGCGCTGA	-0.24
ATCATGGC	-0.0482
ACATGTCG	-0.15
GGAGCATA	-0.0907
GTTTTCAA	0.285
CACCGTTC	0.0424
CCGCCACG	-0.0225
ACTTGGTC	0.173
ACTATGGG	0.052
AGTCGTCC	-0.262
ACTGCCAC	-0.0279
AAGCATAC	-0.0215
GTCAATGA	-0.0525
ACTGAGCT	-0.277

Sequence	PBM E-score
CTGAGATA	0.0134
AAAGACTT	-0.199
CAAGGCGC	-0.141
AAAATGCG	-0.0733
TAAAGATA	0.0715
GGGTGCAA	0.0943
GGGAAAGA	-0.243
CTTCACTA	0.00388
ACCGAGGA	-0.0406
ACGCTAGA	-0.119
TAGTGCCA	-0.18
ACAATCTG	-0.0469
CCATACGA	-0.0949
ATCAAGTA	-0.0433
TAGTAAAA	0.157
AGTATGTA	-0.0522
CGACTGTA	-0.09
ACACCGGC	-0.0775
AAGCAGTC	-0.132
TATCCTAA	0.0366
CCAGCTCC	-0.215
GAATTGCA	-0.0559
ATACCTAC	0.216
ACTCGAAC	-0.0744
GATGACCC	0.403

Sequence	PBM E-score
AGACTGCG	-0.225
TATTCTGA	0.022
CTATGGAG	-0.139
AAGTTTAC	0.178
AGTACGGC	-0.00578
GCTTGAGA	-0.139
CTAGACGA	-0.171
ATAGTTTA	0.0216
ACACCGGG	0.0916
AGACTGGG	-0.141
GATAACAA	0.171
GAAGACTA	-0.0505
GATGGCCC	-0.0404
GCTACTTA	-0.226
ACTAACGG	-0.158
ATGGCGTA	-0.0173
CATGGTGA	0.0149
GCGTCCCC	-0.249
CGCTCGAG	-0.0913
AGGGTGGC	0.293
GACTGAGA	-0.0802
CTACTCCA	-0.0348
ACTCGCCT	-0.0695
ACCGACCT	0.0803
CCCTAGTA	-0.00016

Sequence	PBM E-score
CTCCACGC	-0.241
GACTCTGC	-0.129
GGAATGTA	-0.0291
CTACCTAA	0.106
AGCTGGAC	-0.202
AAAACTAC	0.115
AACAGGAT	-0.0521
AAAAGGAA	0.119
CTTTGGCA	-0.316
GGGCCAAC	-0.194
CCAATGTC	0.0198
ACCGGACC	-0.0182
GGTCAAAA	0.25
CCCAGGGC	-0.18
CATGGCTC	-0.133
CATGTGAA	-0.0799
ACTCGTGC	-0.164
AGTCGGCG	-0.141
GAAGTTTA	0.00485
GAGGGATC	-0.141
ACCTTAGT	0.27
CCCAACGA	-0.0315
GACGACTC	-0.289
TAAGCAGA	-0.127
CCAACGCA	0.182

Sequence	PBM E-score
AGGACTCA	-0.163
AACCTGAC	0.195
AGACCTCA	0.0826
AATGTCCT	-0.161
ATGGCTCA	-0.121
ACCTGCGG	0.172
CGCATGCC	-0.0453
CACGATCA	0.162
AGGTACTC	0.261
AGCTGAAA	-0.0338
GTAGGCCA	0.064
AGATGCTC	-0.0951
CAGTGGCG	-0.132
ACGTGTTG	-0.208
CGTCCCAG	-0.1
CGACATAA	-0.0524
AGCTATAC	-0.00572
ACCGATGG	0.143
GAAGTTGC	-0.122
